Results from the supplement of paper PMC8728848.
This is one part of the list.

How the values were obtained:
Assay in all cases: glycan array binding signal (z-score within array); higher = stronger binding
Details in all cases: glycan notation: IUPAC condensed, linker removed
[1] = molecular target: Gal(b1-4)GlcNAc(b1-3)Gal(b1-3)GlcNAc
Summary of the method: (§1)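 The binding signal is a Z-score computed within each array. Data were drawn from 3228 arrays in the Consortium for Functional Glycomics database, restricted to those with a known protein sequence. Scores were averaged over arrays of the same protein sequence at different concentrations or buffers, and over linkers, and negative values can be taken as non-binding.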

[2] = molecular target: Gal(b1-4)GlcNAc(b1-3)Gal(b1-4)Glc
Summary of the method: as §1

[3] = molecular target: Gal(b1-4)GlcNAc(b1-3)Gal(b1-4)GlcNAc
Summary of the method: as §1

[4] = molecular target: Gal(b1-4)GlcNAc(b1-3)Gal(b1-4)GlcNAc(b1-2)Man(a1-3)[Gal(b1-4)GlcNAc(b1-3)Gal(b1-4)GlcNAc(b1-2)Man(a1-6)]Man(b1-4)GlcNAc(b1-4)GlcNAc
Summary of the method: as §1

[5] = molecular target: Gal(b1-4)GlcNAc(b1-3)Gal(b1-4)GlcNAc(b1-2)Man(a1-3)[Gal(b1-4)GlcNAc(b1-3)Gal(b1-4)GlcNAc(b1-2)Man(a1-6)]Man(b1-4)GlcNAc(b1-4)[Fuc(a1-6)]GlcNAc
Summary of the method: as §1

[6] = molecular target: Gal(b1-4)GlcNAc(b1-3)Gal(b1-4)GlcNAc(b1-2)[Gal(b1-4)GlcNAc(b1-3)Gal(b1-4)GlcNAc(b1-6)]Man(a1-6)[Gal(b1-4)GlcNAc(b1-3)Gal(b1-4)GlcNAc(b1-2)Man(a1-3)]Man(b1-4)GlcNAc(b1-4)GlcNAc
Summary of the method: as §1

[7] = molecular target: Gal(b1-4)GlcNAc(b1-3)Gal(b1-4)GlcNAc(b1-2)[Gal(b1-4)GlcNAc(b1-3)Gal(b1-4)GlcNAc(b1-6)]Man(a1-6)[Gal(b1-4)GlcNAc(b1-3)Gal(b1-4)GlcNAc(b1-2)Man(a1-3)]Man(b1-4)GlcNAc(b1-4)[Fuc(a1-6)]GlcNAc
Summary of the method: as §1

[8] = molecular target: Gal(b1-4)GlcNAc(b1-3)Gal(b1-4)GlcNAc(b1-3)Gal(b1-4)GlcNAc
Summary of the method: as §1

[9] = molecular target: Gal(b1-4)GlcNAc(b1-3)Gal(b1-4)GlcNAc(b1-3)Gal(b1-4)GlcNAc(b1-2)Man(a1-3)[Gal(b1-4)GlcNAc(b1-3)Gal(b1-4)GlcNAc(b1-3)Gal(b1-4)GlcNAc(b1-2)Man(a1-6)]Man(b1-4)GlcNAc(b1-4)GlcNAc
Summary of the method: as §1

[10] = molecular target: Gal(b1-4)GlcNAc(b1-3)Gal(b1-4)GlcNAc(b1-3)Gal(b1-4)GlcNAc(b1-2)Man(a1-3)[Gal(b1-4)GlcNAc(b1-3)Gal(b1-4)GlcNAc(b1-3)Gal(b1-4)GlcNAc(b1-2)Man(a1-6)]Man(b1-4)GlcNAc(b1-4)[Fuc(a1-6)]GlcNAc
Summary of the method: as §1

[11] = molecular target: Gal(b1-4)GlcNAc(b1-3)Gal(b1-4)GlcNAc(b1-3)Gal(b1-4)GlcNAc(b1-2)[Gal(b1-4)GlcNAc(b1-3)Gal(b1-4)GlcNAc(b1-3)Gal(b1-4)GlcNAc(b1-6)]Man(a1-6)[Gal(b1-4)GlcNAc(b1-3)Gal(b1-4)GlcNAc(b1-3)Gal(b1-4)GlcNAc(b1-2)Man(a1-3)]Man(b1-4)GlcNAc(b1-4)[Fuc(a1-6)]GlcNAc
Summary of the method: as §1

[12] = molecular target: Gal(b1-4)GlcNAc(b1-3)Gal(b1-4)GlcNAc(b1-3)Gal(b1-4)GlcNAc(b1-3)Gal(b1-4)GlcNAc(b1-2)Man(a1-3)[Gal(b1-4)GlcNAc(b1-3)Gal(b1-4)GlcNAc(b1-3)Gal(b1-4)GlcNAc(b1-3)Gal(b1-4)GlcNAc(b1-2)Man(a1-6)]Man(b1-4)GlcNAc(b1-4)GlcNAc
Summary of the method: as §1

[13] = molecular target: Gal(b1-4)GlcNAc(b1-3)Gal(b1-4)GlcNAc(b1-3)Gal(b1-4)GlcNAc(b1-3)Gal(b1-4)GlcNAc(b1-2)Man(a1-3)[Gal(b1-4)GlcNAc(b1-3)Gal(b1-4)GlcNAc(b1-3)Gal(b1-4)GlcNAc(b1-3)Gal(b1-4)GlcNAc(b1-2)Man(a1-6)]Man(b1-4)GlcNAc(b1-4)[Fuc(a1-6)]GlcNAc
Summary of the method: as §1

[14] = molecular target: Gal(b1-4)GlcNAc(b1-3)Gal(b1-4)GlcNAc(b1-3)Gal(b1-4)GlcNAc(b1-3)Gal(b1-4)GlcNAc(b1-2)[Gal(b1-4)GlcNAc(b1-3)Gal(b1-4)GlcNAc(b1-3)Gal(b1-4)GlcNAc(b1-3)Gal(b1-4)GlcNAc(b1-6)]Man(a1-6)[Gal(b1-4)GlcNAc(b1-3)Gal(b1-4)GlcNAc(b1-3)Gal(b1-4)GlcNAc(b1-3)Gal(b1-4)GlcNAc(b1-2)Man(a1-3)]Man(b1-4)GlcNAc(b1-4)[Fuc(a1-6)]GlcNAc
Summary of the method: as §1

[15] = molecular target: Gal(b1-4)GlcNAc(b1-3)Gal(b1-4)GlcNAc(b1-3)Gal(b1-4)GlcNAc(b1-3)Gal(b1-4)GlcNAc(b1-3)Gal(b1-4)GlcNAc(b1-2)Man(a1-3)[Gal(b1-4)GlcNAc(b1-3)Gal(b1-4)GlcNAc(b1-3)Gal(b1-4)GlcNAc(b1-3)Gal(b1-4)GlcNAc(b1-3)Gal(b1-4)GlcNAc(b1-2)Man(a1-6)]Man(b1-4)GlcNAc(b1-4)GlcNAc
Summary of the method: as §1

[16] = molecular target: Gal(b1-4)GlcNAc(b1-3)Gal(b1-4)GlcNAc(b1-3)Gal(b1-4)GlcNAc(b1-3)Gal(b1-4)GlcNAc(b1-3)Gal(b1-4)GlcNAc(b1-2)Man(a1-3)[Gal(b1-4)GlcNAc(b1-3)Gal(b1-4)GlcNAc(b1-3)Gal(b1-4)GlcNAc(b1-3)Gal(b1-4)GlcNAc(b1-3)Gal(b1-4)GlcNAc(b1-2)Man(a1-6)]Man(b1-4)GlcNAc(b1-4)[Fuc(a1-6)]GlcNAc
Summary of the method: as §1

[17] = molecular target: Gal(b1-4)GlcNAc(b1-3)Gal(b1-4)GlcNAc(b1-3)Gal(b1-4)GlcNAc(b1-3)Gal(b1-4)GlcNAc(b1-3)Gal(b1-4)GlcNAc(b1-2)[Gal(b1-4)GlcNAc(b1-3)Gal(b1-4)GlcNAc(b1-3)Gal(b1-4)GlcNAc(b1-3)Gal(b1-4)GlcNAc(b1-3)Gal(b1-4)GlcNAc(b1-6)]Man(a1-6)[Gal(b1-4)GlcNAc(b1-3)Gal(b1-4)GlcNAc(b1-3)Gal(b1-4)GlcNAc(b1-3)Gal(b1-4)GlcNAc(b1-3)Gal(b1-4)GlcNAc(b1-2)Man(a1-3)]Man(b1-4)GlcNAc(b1-4)[Fuc(a1-6)]GlcNAc
Summary of the method: as §1

[18] = molecular target: Gal(b1-4)GlcNAc(b1-3)Gal(b1-4)GlcNAc(b1-3)Gal(b1-4)GlcNAc(b1-3)Gal(b1-4)GlcNAc(b1-3)Gal(b1-4)GlcNAc(b1-3)Gal(b1-4)GlcNAc(b1-2)Man(a1-3)[Gal(b1-4)GlcNAc(b1-3)Gal(b1-4)GlcNAc(b1-3)Gal(b1-4)GlcNAc(b1-3)Gal(b1-4)GlcNAc(b1-3)Gal(b1-4)GlcNAc(b1-3)Gal(b1-4)GlcNAc(b1-2)Man(a1-6)]Man(b1-4)GlcNAc(b1-4)GlcNAc
Summary of the method: as §1

[19] = molecular target: Gal(b1-4)GlcNAc(b1-3)Gal(b1-4)GlcNAc(b1-3)GalNAc
Summary of the method: as §1

B1: DrGal9 (Danio rerio) (protein)
chain: MAFYQQPPYYNPRIPFSGPIQGGLQDGKSIIISGRVLPGANRFHVNLQCGSHSEANVALHFNPRYEDTDYVVNNSYLNRTWGSEERKYESPFAQGQTFTLQILVAQDKYKISTNGRHFMDYKHRIPFTQVDTVAVEGMVEVNSVAFQNPAGFIPPQAGYAPQYAVPPGCGFPAFPSAPNYTIPHKTVMNGGLHPGKNIVINGVVNPNAKSIIFNLCYRSGIAFHYNPRFDENVVVRNTNQMEKWGAEERFGGLPFHKGQPFQVTISCNPQHYNVFVNGKQEHTYKHRYTKLNDIDILEICGDLQLTSVQA
glycan array binding signal (z-score) [1]: 0.104 | glycan array binding signal (z-score) [2]: 0.782 | glycan array binding signal (z-score) [3]: 0.486 | glycan array binding signal (z-score) [4]: 1.72 | glycan array binding signal (z-score) [5]: 5.22 | glycan array binding signal (z-score) [6]: 0.373 | glycan array binding signal (z-score) [7]: 2.91 | glycan array binding signal (z-score) [8]: 0.429 | glycan array binding signal (z-score) [9]: 2.59 | glycan array binding signal (z-score) [10]: 4.02 | glycan array binding signal (z-score) [11]: 4.33 | glycan array binding signal (z-score) [12]: 3.48 | glycan array binding signal (z-score) [13]: 3.44 | glycan array binding signal (z-score) [14]: 3.19 | glycan array binding signal (z-score) [15]: 3.05 | glycan array binding signal (z-score) [16]: 2.73 | glycan array binding signal (z-score) [17]: 3.6 | glycan array binding signal (z-score) [18]: 2.17 | glycan array binding signal (z-score) [19]: 0.009
